Assay results reported in PubChem BioAssay AID504332 (National Center for Advancing Translational Sciences (NCATS), 2011).
Hit rate of the full screen: of about 350,000 compounds, about 31,000 (8.9%) were called active. This list was built around the results that the source calls inconclusive (neither active nor inactive); the mix of calls is not that of the screen. Calls come from the whole dose curve; as a rule, active = well fitted inhibition curve with a large enough effect; inconclusive = small, poorly fitted or top-dose-only effect; inactive = no such curve, though single readings can be large or run the other way. A potency beside an inconclusive call is a rough fit, not a confirmed value.

target: Histone-lysine N-methyltransferase EHMT2 (Homo sapiens) (UniProt Q96KQ7); assay: qHTS Assay for Inhibitors of Histone Lysine Methyltransferase G9a; details: G9a H3K9 monomethylation, AlphaScreen, 2 h; activity, negative = inhibition: at 59 µM (top of the series) unless noted; note: nearly all actives have a fitted effect of over 75% in size
Chain of UniProt Q96KQ7 (Q96KQ7 whole entry, looked up, the tested form may be a part): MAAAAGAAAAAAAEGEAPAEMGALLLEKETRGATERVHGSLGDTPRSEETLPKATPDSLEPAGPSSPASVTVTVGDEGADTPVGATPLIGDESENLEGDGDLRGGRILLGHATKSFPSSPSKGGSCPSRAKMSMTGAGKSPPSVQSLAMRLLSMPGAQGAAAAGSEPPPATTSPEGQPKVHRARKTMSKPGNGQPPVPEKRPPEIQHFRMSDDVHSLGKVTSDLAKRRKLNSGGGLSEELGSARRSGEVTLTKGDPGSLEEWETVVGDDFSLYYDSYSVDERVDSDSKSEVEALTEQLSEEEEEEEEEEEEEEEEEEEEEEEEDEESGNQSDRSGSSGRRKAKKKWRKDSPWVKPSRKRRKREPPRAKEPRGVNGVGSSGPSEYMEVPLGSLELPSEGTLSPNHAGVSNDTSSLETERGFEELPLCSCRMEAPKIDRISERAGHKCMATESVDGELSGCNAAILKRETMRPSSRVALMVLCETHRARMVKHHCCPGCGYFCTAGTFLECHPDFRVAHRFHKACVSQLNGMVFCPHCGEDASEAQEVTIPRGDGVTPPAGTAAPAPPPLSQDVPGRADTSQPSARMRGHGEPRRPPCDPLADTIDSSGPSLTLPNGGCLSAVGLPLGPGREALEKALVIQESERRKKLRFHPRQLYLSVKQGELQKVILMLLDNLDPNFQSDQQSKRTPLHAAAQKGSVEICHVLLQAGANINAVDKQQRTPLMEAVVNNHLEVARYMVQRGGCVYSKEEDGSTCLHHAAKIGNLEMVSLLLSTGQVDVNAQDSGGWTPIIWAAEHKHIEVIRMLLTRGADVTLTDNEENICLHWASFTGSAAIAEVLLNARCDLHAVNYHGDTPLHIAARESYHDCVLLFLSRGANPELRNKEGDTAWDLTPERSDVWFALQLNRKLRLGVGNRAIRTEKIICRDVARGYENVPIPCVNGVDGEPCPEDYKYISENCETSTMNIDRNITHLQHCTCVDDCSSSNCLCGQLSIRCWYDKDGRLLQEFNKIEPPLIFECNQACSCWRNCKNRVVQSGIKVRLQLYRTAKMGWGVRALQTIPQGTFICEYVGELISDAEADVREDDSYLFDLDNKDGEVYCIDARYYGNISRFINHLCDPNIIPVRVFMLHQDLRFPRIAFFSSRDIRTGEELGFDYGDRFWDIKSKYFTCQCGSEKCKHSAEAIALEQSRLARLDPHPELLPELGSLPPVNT
Source text: Methylated lysines, on the N-terminal tails of histone proteins serve as epigenetic markers to recruit factors that can then modify local chromatin structure to lead to functional consequences. G9a and other members of the SUV39 family of the SET domain-containing superfamily of histone lysine methyltransferases (HMT) have been identified to specifically methylate Lys9 of histone H3 (H3K9). G9a catalyzes the mono- and di-methylation of H3K9 in mammalian euchromatic regions, where the resulting H3K9me2 is indicative of transcriptional repression. […] The inhibition of G9a will result in transcriptional activation and work synergistically with DNA methyltransferase and histone deacetylase inhibitors, to kill cancer cells. This qHTS assay for identification of G9a inhibitors is a chemiluminescence based AlphaScreen (PerkinElmer). Methylation of biotinylated-histone peptide is measured through specific antibody-based detection, in conjunction with streptavidin-coated donor and anti-IgG antibody-coated acceptor beads. The method is particularly well suited for detection of inhibitors acting by the desired histone peptide competitive mechanism and is applicable to testing other HMTs. Although AlphaScreen has significant advantages with its utility in a variety of epigenetic target assays, the primary screening data provided in this deposition should be used with caution due to the prevalence of screening artifacts. An AlphaScreen counterscreen is highly recommended to be run against any putative actives to eliminate non specific artifacts. Alternatively, one can use other AlphaScreen assays in PubChem to filter out promiscuous hits. Quinn et al. A chemiluminescence-based method for identification of histone lysine methyltransferase inhibitors. Mol Biosyst 6(5): 782-8. 2010. PMID: 20567762 [2] Baell,Holloway. New substructure filters for removal of pan assay interference compounds (PAINS) from screening libraries and for their exclusion in bioassays. J Med Chem. 53(7):2719-40. 2010. PMID: 20131845 NIH Molecular Libraries Probe Production Network [MLPCN] NIH Chemical Genomics Center [NCGC] Structural Genomics Consortium (SGC) NIH Grant: 5U54 MH084681-02
To each well of a 1,536w plate, 2ul of HMT enzyme (final 20nM) were added, using a nanoliter dispenser. The G9a- and GLP-inhibitor BIX-01294 (CID: 25150857) are used as an intraplate control, with a 16-point titration in duplicate. A Kalypsys pin-tool transferred 23nl of library compound solution in DMSO to each well. Following a 15 min incubation of enzyme with compounds at room temperature, 1ul mixture of b-H3K9 peptide substrate (final 500nM) and SAM cofactor (final 20uM) were added. Reactions were allowed to proceed at room temperature for 2 hours. Methylated b-H3K9 peptide product was detected with 0.5 ug/mL rabbit polyclonal anti-monomethyl histone H3K9 antibody (Abcam Inc., Cambridge, MA) and 20 ug/mL each streptavidin-coated donor and anti-rabbit IgG acceptor AlphaScreen beads. Antibody and beads were added in a 1ul dispense, for a final volume of 4ul, and plates were incubated, protected from the light, for 10 min at room temperature. Microplates were then read on an EnVision multilabel plate reader using the 1,536 plate HTS AlphaScreen aperture (excitation time 80 ms, measurement time 240 ms).
% is set by controls: 0 for no effect and ±100 for the full control effect; potency is the fitted concentration of half-maximal effect; tags give direction and shape of the fitted curve.

Structure (SMILES) | activity, negative = inhibition | Potency
CSc1ncc2c(n1)-c1ccccc1N(Cc1ccccc1C)S2(=O)=O | inactive: 22.7% | –
COc1ccc(-n2c(=O)c3c(c4cc(OC)ccc4n3C)n(Cc3c(F)cccc3Cl)c2=O)cc1 | – | inconclusive: 6.31 µM [inhibitor, partial curve, poor fit]
CS(=O)(=O)N1CCN(Cc2ccccc2C(F)(F)F)CC1 | inactive: 14.1% | –
COc1ccc(NC(=O)CCc2nnc3ccc(N4CCN(c5cccc(OC)c5)CC4)nn23)cc1 | – | inconclusive: 89.1 µM [inhibitor, single point]
CCCCn1c(N)c(N(CCOC)C(=O)C2CCN(S(=O)(=O)c3ccc(C)cc3)CC2)c(=O)[nH]c1=O | – | inconclusive: 89.1 µM [inhibitor, single point]
Fc1ccc(NCc2nc3ccccc3n2CCOc2ccccc2Cl)cc1 | inactive: 11.8% | –
CC1=NN(c2ccccc2)C(=O)C1N=Nc1ccc(N)cc1 (stereo unspecified) | inconclusive: -146% [inhibitor] | –
COc1ccc(OCc2n[nH]c(=S)n2-c2ccc(C)cc2)cc1 | – | inconclusive: 28.2 µM [inhibitor, partial curve, poor fit]
Cc1ccc(OCCSc2nc3ccc(NC(=O)COc4ccc(C)cc4)cc3s2)cc1 | inactive: -12.8% | –
CC1(C)OC(c2ccccc2)=C/C(=C/C=Nc2ccccc2)O1 | – | inconclusive: 39.8 µM [inhibitor, single point]
CC1CCN(C(=O)c2ccc(CSc3nc4ccncc4n3Cc3ccc(F)cc3)cc2)CC1 | – | active: 79.4 µM
COc1ccc(/C=C2/SC(=S)N(CCCC(=O)Nc3ccccc3C(=O)O)C2=O)cc1 | – | active: 79.4 µM
O=C(CC(=O)N/N=C/c1ccccc1O)NCc1cccnc1 | inactive: 46.1% | –
O=C(NCc1ccccc1)c1n[nH]nc1-c1ccccc1O | – | inconclusive: 2.24 µM [inhibitor, partial curve, poor fit]
Cc1cccc(N=C2NN=C(c3c(C)[nH]c4ccccc34)CS2)c1 | – | inconclusive: 39.8 µM [inhibitor, single point]
CC1=C(c2ccccc2)[N+](=O)C2(CCCC2)N1[O-] | inactive: -23% | –
CN1C(=O)NC(c2ccccc2Cl)C2=C1CC(C)(C)CC2=O (stereo unspecified) | – | inconclusive: 89.1 µM [inhibitor, single point]
COc1ccccc1Nc1nc(N)nc(CSc2ncccn2)n1 | inactive: -3.79% [at 12.7 µM] | –
CN1CCN(Cc2c(O)ccc3occ(C(=O)c4ccccc4)c23)CC1 | inactive: -9.05% | –
CN(Cc1ccccc1)C(=O)c1c[nH]c2ccc(S(=O)(=O)Nc3ccccc3F)cc2c1=O | inactive: 12.8% | –
COc1ccc(S(=O)(=O)NCc2ccco2)cc1N(C)S(=O)(=O)c1ccccc1 | – | inconclusive: 11.2 µM [inhibitor, partial curve, poor fit]
CN(C)C1=NCCN1CCc1ccccc1 | inactive: 22% [at 2.33 µM] | –
COc1ccc(CNc2nc(-c3ccccc3)nn2C(=O)c2ccccc2OC)cc1 | inactive: 17% | –
Cc1ccc(OCCSc2nc3ccccc3n2CC(=O)N2CCOCC2)cc1C | – | inconclusive: 14.1 µM [inhibitor, partial curve]
CN(C)S(=O)(=O)c1ccc(Cl)c(NC(=O)COC(=O)c2ccc3c(c2)NC(=O)CS3)c1 | – | inconclusive: 35.5 µM [inhibitor, partial curve, poor fit]
Cc1c(CC(=O)NCCCCCC(=O)O)c(=O)oc2c(C)c3oc4c(c3cc12)CCCC4 | – | inconclusive: 89.1 µM [inhibitor, single point]

Structure (SMILES) | activity, negative = inhibition | Potency
Cc1ccc(S(=O)(=O)N2CCN(c3cccc(C)c3)CC2)cc1 | inactive: 9.88% [at 102 µM] | –
CCNC(=O)CC1C(=O)N(c2cccc(OC)c2)C(=O)N1CCOC (stereo unspecified) | – | inconclusive: 1.12 µM [inhibitor, partial curve, poor fit]
COC(=O)/C(C#N)=C/c1ccc(OC(=O)c2ccccn2)cc1 | – | active: 7.94 µM
COc1cc2nc(NCCc3ccc(Cl)cc3)n3nc(-c4ccccc4)nc3c2cc1OC | inactive: -18.9% | –
CC(C)OCCCNC(=O)Cn1c(-c2cccs2)cc2cc(F)ccc21 | inactive: 6.77% | –
Cc1ccc(N/N=C/c2cccnc2)cc1 | – | inconclusive: 8.91 µM [inhibitor, partial curve, poor fit]
COc1ccc(N2CCN(CCCNC(=O)c3sc4ncccc4c3-n3cccc3)CC2)cc1 | – | active: 15.8 µM
Nc1nc(-c2ccco2)nn1C(=O)c1ccc(Cl)cc1 | inactive: 14.7% | –
COc1ccc(Nc2oc(COc3cccc(C)c3)nc2C#N)cc1 | inconclusive: -88.2% [inhibitor] | –
COc1ccc(N2CCN(Cc3cc(=O)oc4cc(-c5ccccc5)c(O)cc34)CC2)cc1 | inactive: -13.6% | –
O=C1NCCCC2c3cc(O)c4ccccc4c3OC12N1CCCCC1 (stereo unspecified) | – | active: 3.55 µM
Cc1ccc(-c2noc(C3CCCN(C(=O)c4cccc(Cl)c4)C3)n2)o1 (stereo unspecified) | – | active: 39.8 µM
O=C(Nc1cccc(NC(=O)c2ccccc2Cl)c1)c1ccc([N+](=O)[O-])o1 | inactive: 5.17% | –
O=[N+]([O-])c1ccc(CN2CCN(c3ccccc3Cl)CC2)o1 | – | active: 28.2 µM
Cc1ccc2sc(N(CCCN(C)C)C(=O)c3ccc(S(=O)(=O)N4CCc5ccccc5C4)cc3)nc2c1C | – | inconclusive: 39.8 µM [inhibitor, partial curve, poor fit]
O=C(NCCCn1ccnc1)/C(=C\c1ccc(Br)cc1)NC(=O)c1ccccc1 | inactive: 21.4% [at 102 µM] | –
CC(=O)Nc1cccc(C(=O)/C=C/c2ccc(Br)cc2)c1 | inactive: 11.4% | –
COc1ccccc1NC(=O)C(=O)NCC(c1ccco1)N1CCc2ccccc21 (stereo unspecified) | – | inconclusive: 50.1 µM [inhibitor, partial curve, poor fit]
COc1ccc(NC(=O)Cn2nc(C)c3c(C)n(-c4ccccc4)nc3c2=O)cc1OC | – | inconclusive: 3.16 µM [inhibitor, partial curve, poor fit]
O=C(CSc1nnc(CNC(=O)c2ccccc2)o1)NCc1ccc(F)cc1 | inactive: 14.1% [at 102 µM] | –
CCOC(=O)CN1C(=O)S/C(=C/c2cccc([N+](=O)[O-])c2O)C1=O | – | active: 35.5 µM
COc1cc(C(=O)OCc2cc(=O)n3ccsc3n2)cc(OC)c1OC | inactive: 12.2% | –
CC(C)n1c(NCc2ccc(N(C)C)cc2)nc2ccccc21 | – | inconclusive: 20 µM [inhibitor, single point]
COc1ccc(N(C(=O)c2ccccc2OC)C2C=CS(=O)(=O)C2)c(OC)c1 (stereo unspecified) | inactive: 8.64% [at 12.7 µM] | –
Cc1ccccc1Nc1c(-c2cccc(O)c2)nc2ccc(Br)cn12 | inactive: -12% | –
Oc1ccccc1N1CCN(CC(O)COCc2ccccc2Cl)CC1 (stereo unspecified) | – | active: 10 µM

Structure (SMILES) | activity, negative = inhibition | Potency
O=C(CN1CCCC1)NC12CC3CC(CC(C3)C1)C2 | inactive: 23.4% | –
CC(C)CCNC(=O)c1ccc(Cn2c(=O)c3cccn3c3cccnc32)cc1 | inactive: -5.93% | –
Cc1ccc(S(=O)(=O)Nc2ccnc(-c3cccnc3)n2)cc1 | – | inconclusive: 89.1 µM [inhibitor, partial curve, poor fit]
CCN(CC)c1ccc(NC(=O)COc2ccc(C#N)cc2)cc1S(=O)(=O)Nc1ccc(OC)cc1 | – | inconclusive: 39.8 µM [inhibitor, single point]
Cc1onc(-c2ccccc2Cl)c1C(=O)NCCN1Cc2ccccc2C1=O | – | inconclusive: 1.12 µM [inhibitor, full curve]
O=C(CSc1nnc(SCc2cccc3ccccc23)s1)c1ccc2c(c1)OCO2 | – | inconclusive: 28.2 µM [inhibitor, full curve]
O=C(O)COc1ccc(S(=O)(=O)N2CCCC2)cc1 | – | inconclusive: 89.1 µM [inhibitor, single point]
CCn1c(-c2ccco2)n[nH]c1=S | – | active: 3.55 µM
NC(=S)N=Nc1c(O)n(C2OC(=O)c3ccccc32)c2ccccc12 (stereo unspecified) | – | inconclusive: 44.7 µM [inhibitor, partial curve]
Cc1cccc(N=Nc2c(O)[nH]c3ccc(Br)cc23)c1 | – | active: 44.7 µM
COc1cccc(OC)c1C(=O)OCCCOC(=O)c1c(OC)cccc1OC | – | inconclusive: 17.8 µM [inhibitor, partial curve]
O=c1c2cc(Br)cc(Br)c2oc2nc3n(c(=O)c12)CCCS3 | inactive: 21.3% | –
O=S(=O)(NCc1ccc(F)cc1)c1ccc2[nH]c3c(c2c1)CCCCC3 | – | active: 8.91 µM
CC(=O)c1cc(OC(=O)c2ccncc2)ccc1OC(=O)c1ccncc1 | inconclusive: -93% [inhibitor] | –
COC(=O)c1cc(C(=O)OC)cc(N2C(=O)CC(Sc3nc(C)cc(C)n3)C2=O)c1 (stereo unspecified) | inconclusive: -58.3% [inhibitor] | –
Cc1sc(C2C(C#N)=C(N)N(c3cccc(Cl)c3)C3=C2C(=O)CCC3)cc1CN1CCOCC1 (stereo unspecified) | – | active: 15.8 µM
Cc1ccc(C(=O)NCCNS(=O)(=O)c2ccccc2)cc1 | inactive: -7.76% [at 102 µM] | –
COc1ccc(CN2CCN(Cc3ccc(C)cc3)CC2)c(OC)c1 | – | active: 50.1 µM
O=C(Nc1ccccc1C(=O)O)c1ccc2ccccc2n1 | inconclusive: -63.5% [inhibitor] | –
Cc1cc2c(n1-c1ccc(C(=O)NCC(C)c3ccccc3)cc1)CCCC2 (stereo unspecified) | inactive: -29.1% | –
Cc1ccc(S(=O)(=O)N(CC(=O)N/N=C/c2ccccc2C(=O)O)c2cc(Cl)cc(Cl)c2)cc1 | – | inconclusive: 28.2 µM [inhibitor, partial curve]
Cn1c(=O)c(=O)n(C)c2cc(N3CCOCC3)c(NS(=O)(=O)c3ccc([N+](=O)[O-])cc3)cc21 | – | inconclusive: 11.2 µM [inhibitor, full curve, poor fit]
CCOC(=O)c1c(NC(=O)c2ccccc2Cl)sc2c1CCc1ccccc1-2 | – | active: 4.47 µM
Cc1ccc(F)cc1NC(=O)CCc1c(C)nn(-c2ccc(N3CCCCC3)nn2)c1C | – | inactive
